This note sets out measurements from PubChem BioAssay AID463173 (ICCB-Longwood Screening Facility, Harvard Medical School, 2010).

Out of some 52,000 compounds screened, about 1,700 (3.3%) were called active. Cut-off read from the data, not from the text of the source: active = survival mostly below about 52% (no sharp cut-off); inactive = mostly above about 56%. The list shows a part of the results.

In this experiment the test system is Wild type. Description: growth inhibition of S. aureus wild type versus tarO mutant, primary screen, teichoic acid synthesis inhibitors, RN4220, OD600 (AID 463173). To be noted: S. aureus RN4220 wild type/DeltatarO growth, OD600, 18 h, stronger effect = lower value, screened at 18.75 µg/mL (by protocol).
`O=S(=O)(c1ccccc1)c1nc(-c2ccc(F)cc2)oc1N1CCCCCC1`: the survival is inactive: 19%. For the compound `c1ccc(Nc2nc(N3CCCCC3)nc(N3CCCCC3)n2)cc1`, the survival is inactive: 84%. `CN(C)c1nc(N(C)C)nc(N(C#N)CN2C(=O)c3ccccc3C2=O)n1`: the survival is inactive: 107%. As for `CCOc1ccc(/C=C/C(=O)Nc2sc3c(c2C(=O)OC)CCC3)cc1`, the survival is inactive: 86%. The value for `COc1cccc(NC(=O)c2c(C(=O)Nc3ccccc3)sc3nc(C)cc(=O)n23)c1` was inactive: 81%.

On to `COc1cccc(Cn2c(SCc3ccc(C(=O)N4CCC(C)CC4)cc3)nc3ccncc32)c1`, for which the survival was inactive: 134%.

As to `CCC(Cc1ccccc1)NC(=O)c1csc2c1CCCCC2` (configuration not stated), the survival is inactive: 120%. To `COc1cc(NC(=O)CCCSc2nc(-c3ccco3)cc(C(F)(F)F)n2)cc(OC)c1OC` belongs inactive: 61%; to `COc1ccc2c(C)cc(SCC(=O)Nc3nsc(-c4ccc(C(C)(C)C)cc4)n3)nc2c1`, active: 5%; to `CCOc1ccc(N=C(c2ccccc2)N2CCOCC2)cc1`, inactive: 99%.

In the case of `COc1ccc2oc(-c3ccc(C)c(NC(=O)c4ccc(N5CCCCC5)c([N+](=O)[O-])c4)c3)nc2c1`, the survival is inactive: 77%. The value for `CC(C)(C)OC(=O)N1CCC(c2c(C(=O)NCCN3CCOCC3)cnn2-c2ccccc2)CC1` was inactive: 64%.

As to `CCN(c1ccccc1)S(=O)(=O)c1cc(C(=O)Nc2ccc(Br)cc2)ccc1F`, the survival is active: 1%.

As to `CCOC(=O)c1c(Nc2ccccc2)nnc(-c2ccccc2)c1-c1ccccc1`, the survival is active: 5%. For the compound `O=C(Cn1c(=O)oc2ccccc21)NCc1ccc(Cl)cc1`, the survival is inactive: 76%. With `COc1ccccc1NC(=O)C1=C(C)Nc2ncnn2C1c1ccc[nH]1` (configuration not stated), the survival was inactive: 131%. The value for `COc1ccc(CNC(=O)CN2CCSc3ccccc32)c(OC)c1` was inactive: 129%. Regarding `CCN(CC)C(=O)Cn1c(SCC(=O)Nc2ccc(C)c(C)c2)nc2ccccc21`, the survival is inactive: 133%. To `CN1CCN(c2ncc3c(n2)CCN(Cc2ccccc2Cl)C3)CC1` belongs inactive: 71%; to `Cc1ccc(-n2ncc3c(NCCc4ccccc4)ncnc32)cc1`, inactive: 76%. The value for `CCOc1ccc(S(=O)(=O)n2nc(C)c(S(=O)(=O)N3CCCCCC3)c2C)cc1` was inactive: 111%; that for `Cc1cc2oc(C(=O)N(Cc3ccccc3)C3CCS(=O)(=O)C3)cc(=O)c2cc1C` (configuration not stated) was inactive: 82%. The value for `Cc1ccc(NC(=O)CN2C(=O)C(c3ccccc3)=NC2(C)C)cc1C` was inactive: 78%; that for `CCc1ccc(-n2c(=O)c3cccnc3n2CC(=O)N(CC)c2cccc(C)c2)cc1` was inactive: 71%. Take `COc1cccc(C(=O)Nc2ccc3c(c2)CCCN3C(=O)c2cccs2)c1OC`: the survival was inactive: 88%. With `Cc1ccccc1C(=O)Nc1ccccc1C(=O)OCc1cc(=O)n2nc(C3CC3)sc2n1`, the survival was inactive: 129%. `O=C(NC1CCSC1=O)c1ccc(Br)cc1` (configuration not stated): the survival is inactive: 118%.

For the compound `Cc1cc(-c2nc3ncccc3o2)ccc1NC(=O)COc1ccc(C(C)(C)C)cc1`, the survival was active: 26%. To `Cc1c2cnn(-c3ccccc3)c(=O)c2c(C)n1CC(=O)NCc1ccc(Cl)cc1` belongs inactive: 96%; to `CCN1CCCC1CNCC(=O)Nc1ccc(C)c(Br)c1` (configuration not stated), inactive: 100%; to `CCOc1ccc(Nc2c(S(=O)(=O)c3ccc(C)cc3)cnc3ccccc23)cc1`, inactive: 41%. The value for `CCc1ccc(NC(=O)CSc2nnc(-c3nonc3NC(C)=O)n2-c2ccccc2)cc1` was inactive: 56%. The value for `CCn1cc2nc(SCc3cccc(C(F)(F)F)c3)n(CCc3ccccc3)c(=O)c2n1` was inactive: 127%. On to `CC1=C(C(N)=O)C(c2ccc(C(C)C)cc2)n2nc(SCc3ccccc3F)nc2N1` (configuration not stated), for which the survival was inactive: 111%. The value for `COc1ccc(-c2cc(C)no2)cc1S(=O)(=O)Nc1cccc(C(F)(F)F)c1` was inactive: 72%; that for `Cc1c(CCNC(=O)c2ccc(C(F)(F)F)cc2)sc2nc(-c3ccc(F)cc3)nn12` was inactive: 81%; that for `COc1ccc(CCNC(=O)Cn2c(C)c3cnn(-c4ccccc4)c(=O)c3c2C)cc1OC` was inactive: 93%. As to `CCOc1ccc(NC(=O)Cn2cnc3nc4c(cc3c2=O)CCCC4)cc1`, the survival is inactive: 78%. `COCCn1c(-c2ccccc2)cnc1N`: the survival is inactive: 107%. The value for `COc1ccc(-c2[nH]c(-c3ccc(F)cc3)nc2SCC(=O)Nc2ccc(OC)c(OC)c2)cc1` was inactive: 81%; that for `Fc1ccc(-n2ncc3c(Nc4ccc(Oc5ccc(Cl)cc5)cc4)ncnc32)cc1` was inactive: 85%. The value for `COC(=O)CNC(c1ccccc1)c1cc(Br)ccc1NC(=O)c1cc(OC)c(OC)c(OC)c1` (configuration not stated) was inactive: 77%.

As for `CC1=C(c2ccc(Cl)cc2)S(=O)(=O)N=C1N1CCN(c2cccc(C)c2)C(C)C1` (configuration not stated), the survival was inactive: 90%.

Regarding `CCCCNC(=O)c1ccc(-c2nc(CS(=O)(=O)c3ccc(C)cc3)c(C)o2)cc1`, the survival is inactive: 83%. For the compound `Cc1ccc(N2CC(c3nnc(Cc4ccc(F)cc4Cl)o3)CC2=O)cc1` (configuration not stated), the survival is inactive: 35%. To `CCN1Cc2cccc(C(=O)Nc3ccc(F)cc3)c2C1=O` belongs inactive: 123%; to `COc1ccc2c(c1)c(N1CCCC1=O)c(C(=O)Nc1ccc(Cl)cc1C)n2C`, inactive: 146%; to `CCOC(=O)c1ccc(OCC2c3cc(OC)c(OC)cc3CCN2C(=O)Cc2ccc(OC)c(OC)c2)cc1` (configuration not stated), inactive: 71%. In the case of `CNC(=O)c1ccc(NC(=O)c2nsc3ccccc23)cc1`, the survival is inactive: 69%. In the case of `COc1ccc(-n2c(CNc3ccccc3Cl)nnc2SCC(N)=O)cc1`, the survival is inactive: 102%.

As to `Cc1ccc(-c2csc(=Nc3ccccc3)n2CCCO)cc1`, the survival is active: -7%.

Turning to `CCOC(=O)c1ccc(NC(=O)Cn2nnc(-c3ccc(C(F)(F)F)cc3)n2)cc1`, the survival was inactive: 92%. `COc1ccc(CCNC(=O)CCCn2c(=O)c3ccccc3n(CC(=O)Nc3c(C)cc(C)cc3C)c2=O)cc1OC`: the survival is inactive: 101%. To `COC(=O)c1c(NC(=O)c2ccc(S(=O)(=O)N3CCCCC3)cc2)sc2c1CCN(C)C2` belongs inactive: 65%; to `N#CCC(=O)N1CCCCCC1`, inactive: 103%. For the compound `Cc1ccc(-n2c(SCc3nc(-c4ccccc4C)no3)nnc2-c2ccncc2)cc1C`, the survival is inactive: 109%. To `Cc1cccc(-c2nc3sc(C)cc3c(=O)o2)c1` belongs inactive: 108%; to `CCOC(=O)c1c(-c2ccc(C)cc2)csc1NC(=O)c1ccc(C(C)(C)C)cc1`, inactive: 62%; to `CCc1ccc(NC(=O)CCS(=O)(=O)c2ccc3c(c2)oc(=O)n3C)cc1`, inactive: 72%. The value for `COC(=O)c1ccc(OC)c(Cn2c(=O)n(-c3cccc(Cl)c3)c(=O)c3c2c2cc(C)ccc2n3C)c1` was inactive: 82%; that for `COc1ccc(NC(=O)c2c(C)oc3ccc(O)c(CN4CCCC(C)C4)c23)cc1Cl` (configuration not stated) was inactive: 83%; that for `Cc1ccc(-n2ncc(C(=O)N3CCc4ccccc4C3)c2C2CCN(C(=O)OC(C)(C)C)CC2)cc1C` was inactive: 71%. As for `Cc1ccc(C)c(CN2C(=O)c3ccccc3Sc3ccc(C(=O)NC4CCCC4)cc32)c1`, the survival was inactive: 133%. The value for `Cc1ccc(N2CCN(C(=O)CCc3c(C)nc4ncnn4c3C)CC2)c(C)c1` was inactive: 72%; that for `COc1ccccc1-c1noc(-c2ccc(NCCc3ccccc3)c([N+](=O)[O-])c2)n1` was inactive: 78%.

Consider `CCS(=O)(=O)c1ncc(Cl)c(C(=O)N(Cc2ccccc2)Cc2ccco2)n1`, for which the survival is inactive: 46%. As to `O=S1(=O)CCC(c2ccccc2)C1` (configuration not stated), the survival was inactive: 100%.

Take `COc1ccccc1C(=O)Nc1ccccc1-c1nnn(CC(=O)N2CCN(c3ccc(F)cc3)CC2)n1`: the survival is inactive: 107%. Regarding `COc1ccc(-c2nc(CN3CCC(C(=O)NCCN(CC(C)C)CC(C)C)CC3)c(C)o2)cc1OC`, the survival is inactive: 123%. Regarding `CC(C)(C)C(=O)OCc1cc(=O)n2nc(C3CCCCC3)sc2n1`, the survival is inactive: 59%. Consider `CCn1cc(C(=O)NCCc2ccc(OC)c(OC)c2)c(=O)c2cc(S(=O)(=O)N3CCc4ccccc4C3)ccc21`, for which the survival is inactive: 88%. `COc1cccc(CNC(=O)CSc2ncc(S(=O)(=O)c3ccc(C)c(Cl)c3)c(=O)[nH]2)c1`: the survival was inactive: 68%.

With `Cc1ncc(CO)c2c1Oc1nc(-c3ccccc3F)nc(SCC(=O)N3CCCCC3)c1C2`, the survival is inactive: 89%. To `CN(C1CCCCC1)C(c1ccc(F)cc1)c1nnnn1C1CCCCC1` (configuration not stated) belongs inactive: 102%; to `COC(=O)c1ccccc1NC(=O)CN1C(=O)COc2ccccc21`, inactive: 69%. The value for `O=c1[nH][nH]c(=S)n2nc(-c3ccccc3)cc12` was inactive: 116%. To `COc1cccc2cc(-c3nc(Cl)c4c5c(sc4n3)CC(C)CC5)c(=O)oc12` (configuration not stated) belongs inactive: 60%; to `COC(=O)c1ccc(OC)c(CSc2nnc(COc3cc(C)cc(C)c3)o2)c1`, inactive: 113%. As for `O=C(NS(=O)(=O)c1ccc(N=NN2CCOCC2)cc1)C12CC3CC(CC(C3)C1)C2`, the survival is inactive: 106%.

For the compound `COc1ccc(NC(=O)CSc2nc3c(c(=O)[nH]2)CN(Cc2ccccc2)CC3)cc1Cl`, the survival is inactive: 83%. The value for `CCc1ccc(NC(=O)Cn2c(=O)n(Cc3ccccc3)c(=O)c3oc4ccccc4c32)cc1` was inactive: 85%; that for `COC(=O)c1cccc(S(=O)(=O)N2CCC(NC(=O)Nc3cccc(F)c3)CC2)c1` was inactive: 110%; that for `Cc1ccc(S(=O)(=O)c2cn(C)c3cc(N4CCCC4)c(F)cc3c2=O)c(C)c1` was inactive: 76%. To `CCOc1cc(C(=O)Nc2c(NC)c3ccccc3oc2=O)cc(OCC)c1OCC` belongs inactive: 131%.

With `CCc1ccc(NC(=O)c2cnn(-c3c(C)cccc3C)c2C2CCNCC2)cc1`, the survival was inactive: 113%. To `CCOCCCNC(=O)c1c(NC(=O)c2cc(=O)c3cc(C)c(C)cc3o2)sc2c1CCC2` belongs inactive: 114%.

Take `CCOC(=O)c1ccc(N2C(=O)c3[nH]nc(-c4ccc(OC)cc4)c3C2c2ccc(C)cc2)cc1` (configuration not stated): the survival was inactive: 89%.
